Measured values reported in ChEMBL document CHEMBL1201862, “PubChem BioAssay data set” (2004).
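Compound exposure: 48 hours, 5 concentrations, 96-well plates. Here, GI50 denotes the concentration required for 50% inhibition of growth.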 Calls of active or inactive are those of the source. Cut-off read from the data, not from the text of the source: active = GI50 up to about 1.1 µM and inactive = higher.

System: NCI-H322M
Experiment: NCI tumour cell line growth inhibition, 48 h

SMILES	GI50
CCn1cc(C(=O)O)c(=O)c2cc(F)c(N3CCN(CN4C(=O)/C(=N\c5ncc(Cc6cc(OC)c(OC)c(OC)c6)c(N)n5)c5cc(Cl)ccc54)CC3)cc21	inactive: > 100 µM
NCCSc1nc(-c2ccccc2)c(-c2ccccc2)o1	inactive: > 100 µM
O=[N+]([O-])c1cc(-c2ccc([As](=O)(O)O)cc2)ccc1[As](=O)(O)O	inactive: > 100 µM
O=C(Nc1ccccc1)n1cc(-c2ccccn2)c(N2CCOCC2)n1	inactive: 15.4 µM
Cc1ccc(SC2=C(N(C)C)C(=O)c3ccccc3C2=O)cc1	inactive: 16 µM
Cc1ccc(/C=C/C(=O)C(C)(C)CN2CCCCC2)cc1	inactive: 5.2 µM
Clc1nc(Cl)c(Cc2ccccc2)c(Cl)n1	inactive: 18.3 µM
CC1=NN(c2nc(N)nc(C(C)Cl)n2)C(C)(C)C1 (stereo not given)	inactive: > 100 µM
CCCCCCCCCCCCCC1CCC(CC)N1 (stereo not given)	inactive: 8.38 µM
Cn1c2ccccc2c2cc(-c3ccccc3)c3c(c21)C(=O)c1ccccc1C3=O	inactive: 22.3 µM
CC#COP(=O)(OCC)OCC	inactive: > 100 µM
CN(CCO)CC(=O)CC(O)(C(F)(F)F)C(F)(F)F	inactive: 37.2 µM
O=C(NC(Cc1ccc(I)cc1)C(=O)O)c1ccc(Br)cc1 (stereo not given)	inactive: > 100 µM
CC1=C(C)C(=O)O[C@@H]([C@](C)(O)[C@]2(O)CC[C@@]3(O)[C@@H]4C[C@H](O)[C@]5(O)[C@@H](O)C=CC(=O)[C@]5(C)[C@H]4CC[C@]23C)C1	inactive: > 100 µM
CC1=C(C(=O)Nc2cc(F)c(F)cc2F)C(c2ccc3c(c2)OCO3)C(C(=O)Nc2cc(F)c(F)cc2F)=C(C)N1	inactive: 26.3 µM
COc1cc(/C=C2\NC(=S)C3Cc4c(OC)c(C)c(OC)c(OC)c4C2N3C)c(OC)c(C)c1OC (stereo not given)	inactive: 76 µM
O=C(CCc1nnc2s/c(=C\c3ccc([N+](=O)[O-])cc3)c(=O)n12)Nc1ccc(Cl)c(Cl)c1	inactive: 64.9 µM
CCC1(C)NC(c2cnccn2)=NN1c1ccc(Cl)cc1 (stereo not given)	inactive: 74 µM

SMILES	GI50
O=C(Nc1ccc(Cl)cc1)c1cc(S(=O)(=O)N2CCNNC2=O)c(S)cc1Cl	inactive: > 100 µM
NC(=O)SCCC(N)C(=O)O (stereo not given)	inactive: > 100 µM
COCc1c(CO)cnc(C)c1OC1OC(CO)C(O)C(O)C1O (stereo not given)	inactive: > 100 µM
CCOC(=O)C1(Cc2ccccc2)Cc2ccccc2C1=O (stereo not given)	inactive: 39.3 µM
C/C=C1\CN2CCc3c([nH]c4ccccc34)C2CC1C(=O)OC (stereo not given)	inactive: > 322 µM
NC(CCSC(F)F)C(=O)O (stereo not given)	inactive: > 100 µM
COC(=O)[C@@H]1C[C@@H](O)CN1C(=O)c1ccc([N+](=O)[O-])cc1[N+](=O)[O-]	inactive: > 100 µM
O=c1ccn([C@@H]2C[C@@H]2CO)c(=O)[nH]1	inactive: > 100 µM
CNS(=O)(=O)NNS(=O)(=O)c1ccc(C)cc1	inactive: > 100 µM
CC(C)=CCC/C(C)=C/CC/C(C)=C/CC(CO)N(C)CC/C=C(\C)CCC=C(C)C (stereo not given)	inactive: 5.78 µM
CN1C(=O)C(O)CC1c1cccc(F)c1 (stereo not given)	inactive: > 100 µM
OC1OCC(COc2cc(Cl)c(Cl)cc2Cl)OC1O (stereo not given)	inactive: 65.5 µM
COC(=O)C1C2CC3C1C3C2C(=O)OC (stereo not given)	inactive: > 100 µM
N#CC(C/C=C/c1ccccc1)NNC(=O)c1c(Cl)c(Cl)c(Cl)c(Cl)c1-c1nc2cc(C(=O)c3ccccc3)ccc2[nH]1 (stereo not given)	inactive: 27.2 µM
COc1cccc2c1C(=O)c1c(O)c3c(c(O)c1C2=O)CC(O)(C(=O)CO)CC3OC1CC(N)C(I)C(C)O1 (stereo not given)	inactive: 15 µM
CC(=O)OC(C)(C)[C@H]1O[C@]23O[C@]1(C)C[C@@H](C)[C@@H]2[C@@]1(C)CC[C@@]24C[C@@]25CC[C@H](O[C@@H]2OC[C@@H](O)[C@H](O)[C@H]2O)C(C)(C)[C@@H]5CC[C@H]4[C@]1(C)[C@H]3O	inactive: 7.6 µM
CN(C)CCOc1ccc2[nH]c(C(=O)N3CC(CCl)c4c3cc([N+](=O)[O-])c3ccccc43)cc2c1 (stereo not given)	inactive: 1.81 µM
